The text below walks through data of article PMC6919601, “Identification of Plasmodium dipeptidyl aminopeptidase allosteric inhibitors by high throughput screening” (PLoS ONE, 2019).

In all, about 110,000 compounds went through this assay and about 230 (0.21%) showed an effect of 50% or more. This is one part of the list.
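Note: 30 min substrate incubation versus DMSO and 10 µM JCP410 controls.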

The target in this assay is DPAP1 (Plasmodium falciparum, UniProt Q8IIJ9). The experiment in a line: primary screen, percent inhibition; read by cleavage of a fluorogenic dipeptide substrate; higher = more effect of the substance. The arrangement: species or system P. falciparum D10 trophozoite lysates; single well.
DPAP1, sequence (Q8IIJ9 whole entry, looked up): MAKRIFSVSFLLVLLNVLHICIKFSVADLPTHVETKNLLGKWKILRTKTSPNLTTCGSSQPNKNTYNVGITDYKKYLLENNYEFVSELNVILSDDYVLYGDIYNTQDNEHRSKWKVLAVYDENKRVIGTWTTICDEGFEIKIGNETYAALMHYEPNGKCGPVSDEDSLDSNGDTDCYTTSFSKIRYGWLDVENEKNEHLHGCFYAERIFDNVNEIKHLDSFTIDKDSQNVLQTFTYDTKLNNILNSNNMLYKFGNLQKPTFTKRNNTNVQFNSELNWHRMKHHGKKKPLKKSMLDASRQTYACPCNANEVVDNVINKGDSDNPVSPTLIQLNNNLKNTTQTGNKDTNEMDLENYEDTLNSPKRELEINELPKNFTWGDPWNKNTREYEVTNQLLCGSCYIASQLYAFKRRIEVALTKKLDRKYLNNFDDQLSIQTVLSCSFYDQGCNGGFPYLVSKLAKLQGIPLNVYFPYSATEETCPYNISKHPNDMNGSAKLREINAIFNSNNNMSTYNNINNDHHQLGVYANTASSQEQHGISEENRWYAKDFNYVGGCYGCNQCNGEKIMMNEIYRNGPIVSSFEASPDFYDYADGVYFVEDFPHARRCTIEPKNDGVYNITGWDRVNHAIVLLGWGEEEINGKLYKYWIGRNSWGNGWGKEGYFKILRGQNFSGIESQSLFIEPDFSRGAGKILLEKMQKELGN
Regarding `O=C(c1ccccc1)c1ccc2nc(N3CCOCC3)c3nncn3c2c1`, the “% Inhibition @ 10 uM” value is listed as 4.88%.
In the case of `CC(C)OC(=O)c1cccc(Cn2nnc3sc4c(c3c2=O)CCCC4)c1`, the “% Inhibition @ 10 uM” value is given as 4%.
With `CCOCCCNc1ncc2c(n1)CC(c1ccccc1Cl)CC2=O` (stereo not shown) the figure was -2.98%.
For `Cc1ccc2nc(N3CCCCC3)nc(-c3ccccc3)c2c1`, the “% Inhibition @ 10 uM” value is on record as -5.38%.
With `O=C(Nc1ccccc1Cl)c1cccc(C(=O)Nc2ccccc2Cl)c1` the figure was -9%; with `Cc1ccc(NC(=O)CN2C(=O)N/C(=C/c3cccc(Br)c3)C2=O)cc1`, -8.28%; with `O=c1oc2ccc3ccccc3c2cc1-c1nc(-c2ccc([N+](=O)[O-])cc2)cs1`, -2.51%.
With `O=C1NC(c2cccnc2)C(C(=O)c2cccs2)=C1O` (stereo not shown) the figure was -2.28%.
As for `Cc1nn(CC(=O)N2CCCCCC2)c(=O)c2c1sc1ccccc12`, the “% Inhibition @ 10 uM” value is reported as 0.697%.
Regarding `COCc1cc(C)nc2sc(C(C)=O)c(NC(=O)c3ccccc3)c12`, the “% Inhibition @ 10 uM” value stood at 1.76%.
Then `CCc1nnc(NC(=O)c2cc3c(s2)-c2ccc(Cl)cc2S(=O)(=O)C3)s1`, with 4.14%; and `CCN(CC)CC(=O)Nc1ccc2c(c1)Nc1ccccc1CC2`, with -5.62%; and `CCn1c(SCC(=O)Nc2c(C)cc(C)cc2C)nc2c1c(=O)n(C)c(=O)n2C`, with 4.67%.
On to `CCc1ccc(OCC(=O)NC2CC(C)(C)NC(C)(C)C2)c(Br)c1`, for which the “% Inhibition @ 10 uM” value is 5.25%.
Take `COc1ccc(CC(=O)Nc2ccc(S(=O)(=O)Nc3ccc(C)cc3C)cc2)cc1`: the “% Inhibition @ 10 uM” value was -3.41%.
Then `CCOc1ccc2nc(NC(=O)Cn3nc(Cc4cccnc4)c4ccccc4c3=O)sc2c1`, with -1.21%.
Then `N#Cc1c(SCC(=O)Nc2nccs2)nc2c(c1-c1ccco1)CCCC2`, with -3.06%; and `Cc1cc(OCC(=O)Nc2ccc(CC#N)cc2)ccc1Cl`, with -5.23%; and `Cc1ccc(N(CC(=O)N2CCCCCC2)S(=O)(=O)c2ccccc2)cc1`, with 5.51%.
For the compound `Cc1ccc(S(=O)(=O)N2CCN(c3ccc(F)cc3)CC2)cc1`, the “% Inhibition @ 10 uM” value is listed as -0.856%.
For the compound `Cc1ncc(CO)c2c1Oc1nc(-c3cccc(F)c3)nc(SCc3ccncc3)c1C2`, the “% Inhibition @ 10 uM” value is given as -3.74%.
As for `Cc1nc2nc(NCc3ccc(C(C)C)cc3)nn2c(C)c1Cl`, the “% Inhibition @ 10 uM” value is listed as 4.18%.
With `Cc1cccc(OCCSc2nc3c(N)nc(N)nc3[nH]2)c1` the figure was -3.09%; with `NC(=O)c1ccc(NS(=O)(=O)c2cc(Cl)ccc2Cl)cc1`, -1.11%; with `CC1=CN2C(=N)/C(=C/c3ccc(SCc4ccc(Cl)cc4)o3)C(=O)N=C2S1`, 7.66%.
For `COc1ccc(C(=O)c2c[nH]c3ccccc23)cc1`, the “% Inhibition @ 10 uM” value was -1.86%.
Regarding `CCOC(=O)c1cc(C)n(CC2CCC(C(=O)Nc3cc(C)ccn3)CC2)c1C` (stereo not shown), the “% Inhibition @ 10 uM” value was -0.767%.
For the compound `OCCN1CCN(CCCc2ccccc2)CC1`, the “% Inhibition @ 10 uM” value is on record as -0.0494%.
`Oc1ccccc1-c1cc(-c2ccc(F)cc2)[nH]n1`: the “% Inhibition @ 10 uM” value is given as -2.04%.
Then `COc1ccc(C2C(C(=O)N3CCN(c4ccccn4)CC3)c3ccccc3C(=O)N2C)cc1` (stereo not shown), with 2.06%; and `Cc1ccccc1NC(=O)CN1CCCCC1`, with -2.73%.
As to `O=C(NCCCc1ccccc1)C1CCN(c2nnc(N3CCCC3=O)s2)CC1`, the “% Inhibition @ 10 uM” value amounted to 5.42%.
Turning to `COC(=O)c1ccc(/C=c2/sc3nc(=O)c(Cc4ccc(F)cc4)nn3c2=O)cc1`, the “% Inhibition @ 10 uM” value is on record as 4.51%.
Turning to `CC(C)(C)C(=O)NCCCc1nc2ccccc2n1CC(=O)c1ccccc1`, the “% Inhibition @ 10 uM” value is -0.58%.
As to `C=CCOc1ccc(CNc2nccs2)cc1OC`, the “% Inhibition @ 10 uM” value is recorded as -1.61%.
As to `CCN1CCN(Cc2ccc(C(F)(F)F)cc2)CC1`, the “% Inhibition @ 10 uM” value is given as 1.55%.
On to `CS(=O)(=O)N(CC(=O)N1CCN(Cc2ccccc2)CC1)c1cccc(C(F)(F)F)c1`, for which the “% Inhibition @ 10 uM” value is -3.75%.
For the compound `COc1ccc(NS(=O)(=O)c2cccc(C(=O)Nc3ccccc3C)c2)cc1`, the “% Inhibition @ 10 uM” value is on record as -1.74%.
As for `CC(C)c1ccc(N(CC(=O)Nc2cccnc2)S(=O)(=O)c2ccccc2)cc1`, the “% Inhibition @ 10 uM” value was -8.18%.
Take `CC(C)CC(NC(=O)C1CCCCC1)C(=O)NC(CCN(C)C)Cc1ccccc1` (stereo not shown): the “% Inhibition @ 10 uM” value is 0.505%.
`O=C1N/C(=C\c2ccc(F)cc2)C(=O)c2ccccc21`: the “% Inhibition @ 10 uM” value is on record as -0.292%.
For the compound `O=C(CCCOc1ccc(Cl)cc1Cl)Nc1nccs1`, the “% Inhibition @ 10 uM” value is 4.57%.
Turning to `CC1CCN(c2nnc(-c3cccs3)c3ccccc23)CC1`, the “% Inhibition @ 10 uM” value was found to be 3.47%.
On to `O=C(c1sc2cccc(Cl)c2c1Cl)N(Cc1cccs1)C1CCS(=O)(=O)C1` (stereo not shown), for which the “% Inhibition @ 10 uM” value is on record as -5.01%.
As for `Fc1cnc(N2CCOCC2)nc1N1CCOCC1`, the “% Inhibition @ 10 uM” value amounted to 1.51%.
For the compound `COc1ccccc1C(=O)Nc1ccc(NC(=O)C(F)(F)F)cc1`, the “% Inhibition @ 10 uM” value turned out to be 4.26%.
Consider `CN1CCN(C(=O)c2ccc(-n3nc(C(F)(F)F)c4c3CCCC4)cc2)CC1`, for which the “% Inhibition @ 10 uM” value is given as -1.27%.
With `Oc1ncnc2[nH]c(N3CCOCC3)nc12`, the “% Inhibition @ 10 uM” value is recorded as -6.08%.
For `O=C(O)CNC(=O)/C(=C/c1ccc(Cl)cc1)NC(=O)c1ccco1`, the “% Inhibition @ 10 uM” value is reported as 9.87%.
Consider `O=C(Cn1ncc2c3ccccc3n(Cc3ccc(F)cc3)c2c1=O)N1CCCCCC1`, for which the “% Inhibition @ 10 uM” value worked out at 1.8%.
`Cc1ccc(NC(=O)/C=C/C(N)=O)cc1`: the “% Inhibition @ 10 uM” value is recorded as -2.32%.
With `c1cnc2c(c1)NCCS2` the figure was 6.13%; with `CCOc1ccc(CCNC(=O)c2ccc3c(c2)ncn3C2CCCC2)cc1OCC`, 2.05%.
With `COc1ccc(S(=O)(=O)N2CC=C(C(=O)NC3CCCC3)CC2)cc1` the figure was 3.34%.
For `O=c1oc2c(-c3ccccc3Cl)cc(O)cc2s1`, the “% Inhibition @ 10 uM” value is -4.8%.
In the case of `O=C(CCNS(=O)(=O)c1ccc2nc(O)ccc2c1)NC1CCCC1`, the “% Inhibition @ 10 uM” value came to 1.93%.
Then `COc1nc(C)nc(NC(=O)NS(=O)(=O)Nc2cc([N+](=O)[O-])ccc2C)n1`, with -8.49%; and `Fc1ccc(N2CCN(C3C4CC5CC(C4)CC3C5)CC2)cc1` (stereo not shown), with 1.29%.
Regarding `Cn1c2c(c(=O)n(C)c1=O)C(c1ccc(F)cc1)C(C#N)=C(N)O2` (stereo not shown), the “% Inhibition @ 10 uM” value is listed as -3.65%.
Consider `CCOc1ccccc1/C=C(\C#N)c1nc(-c2ccc(OC)cc2)cs1`, for which the “% Inhibition @ 10 uM” value is on record as 2.56%.
With `Cc1ccc(/C=C2\N=C(c3cc(Cl)ccc3Cl)OC2=O)o1`, the “% Inhibition @ 10 uM” value was -0.48%.
For the compound `CCOc1ccc(-c2csc(Nc3ccc(F)cc3)n2)cc1[N+](=O)[O-]`, the “% Inhibition @ 10 uM” value is reported as 4.12%.
Consider `CCn1cc(CCCC(=O)NC2CCCC2)c2ccccc21`, for which the “% Inhibition @ 10 uM” value is listed as -6.99%.
Take `O=[N+]([O-])c1cccc(CN2CCN(c3ccccc3)CC2)c1`: the “% Inhibition @ 10 uM” value was -0.197%.
